# PubChem BioAssay AID360 (National Center for Advancing Translational Sciences (NCATS), 2006)
# Out of some 48,000 compounds screened, about 550 (1.1%) were called active. The inconclusive results got no clear call from the source; some entries with a clear call stand among them for comparison. No stated cut-off is given here; in the data, active means potency below about 15 µM; inconclusive means mostly about 16 µM to 33 µM; inactive means weaker than that. Potencies of inconclusive entries are left out as doubtful fits.
# Target: Lysosomal acid glucosylceramidase (Homo sapiens) (UniProt P04062)
# Chain of UniProt P04062 (P04062 whole entry, looked up): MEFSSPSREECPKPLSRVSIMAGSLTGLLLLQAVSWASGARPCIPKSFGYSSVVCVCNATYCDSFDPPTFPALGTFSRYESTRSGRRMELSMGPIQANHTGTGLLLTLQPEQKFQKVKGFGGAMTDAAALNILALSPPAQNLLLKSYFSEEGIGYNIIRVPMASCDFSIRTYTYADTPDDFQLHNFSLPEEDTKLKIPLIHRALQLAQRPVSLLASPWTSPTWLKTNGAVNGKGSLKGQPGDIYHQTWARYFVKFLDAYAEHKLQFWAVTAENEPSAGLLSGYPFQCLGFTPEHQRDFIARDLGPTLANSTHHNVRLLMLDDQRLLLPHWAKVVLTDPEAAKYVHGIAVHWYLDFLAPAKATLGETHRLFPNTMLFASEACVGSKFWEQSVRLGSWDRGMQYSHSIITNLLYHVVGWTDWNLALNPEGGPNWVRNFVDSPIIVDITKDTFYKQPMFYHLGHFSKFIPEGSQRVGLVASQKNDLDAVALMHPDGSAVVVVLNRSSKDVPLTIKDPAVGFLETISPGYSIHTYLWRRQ
# Test: Glucocerebrosidase;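 further: the screen sought inhibitors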
# Settings: purified enzyme, resorufin glucoside fluorescence (screen aimed at inhibitors), 20 min
# Outline: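 Normal human glucocerebrosidase (0.2 nM final) was assayed with resorufin β-D-glucopyranoside (30 uM final) in 50mM citric acid/KH2PO4, 10mM sodium taurocholate, 0.01% tween-20, pH 5.9. Compounds were titrated; fluorescence (Ex 548, Em 600) read after 20 min at RT.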
# Potency means the concentration at half of the fitted maximal effect.
row,Compound,Potency
1,CCc1ccc2oc(=O)cc(CN3CCN(CCO)CC3)c2c1,inconclusive [decreasing]
2,CCCN1Cc2cccc(C(=O)Nc3ccc(N4CCN(CC)CC4)cc3)c2C1=O,inconclusive [decreasing]
3,O=C1CN(C(=O)c2ccc(Br)o2)C(c2ccc(F)cc2)c2cc(F)ccc2N1 (configuration not stated),inconclusive [decreasing]
4,CCOc1ccc(C(=O)Nc2ccc(N3CCCC3)cc2)cc1,inconclusive [decreasing]
5,Cc1ccc(C)c(Cn2nnc3c(=O)[nH]c(C4CCCN(C(=O)C5CCCCC5)C4)nc32)c1 (configuration not stated),inconclusive [decreasing]
6,CCn1nc(NC(=O)c2ccncc2)c2cc3cccc(C)c3nc21,inactive: > 76.9 µM
7,O=C(COC(=O)CCCN1C(=O)c2ccccc2C1=O)Nc1ncc(Cl)cc1Cl,inactive: > 76.9 µM
8,CCOC(=O)c1ccc2nc(NC(=O)c3ccco3)sc2c1,inconclusive [increasing]
9,Cc1ccc(NC(=O)NC(=O)CN2C(=O)NC3(CCCCCCC3)C2=O)c(C)c1,inconclusive [decreasing]
10,COc1ccccc1Nc1nc(C)cc(=O)[nH]1,inconclusive [decreasing]
11,COc1cc(C(=O)NCC(c2ccco2)N2CCCC2)ccc1OCc1c(C)noc1C (configuration not stated),inactive: > 76.9 µM
12,COc1ccc(N(C(=O)c2ccc(Br)o2)C2C=CS(=O)(=O)C2)cc1 (configuration not stated),inconclusive [decreasing]
13,CCOC(=O)N1CCC(NC(=O)c2ccc3c(c2)ncn3C2CCCC2)CC1,inconclusive [decreasing]
14,Brc1cnc(N2CCCC2)nc1N1CCOCC1,active: 14.6 µM
15,CCOC(=O)C1=C(C)NC(C)=C(C(=O)OCC)C1c1ccc(OC)cc1,inconclusive [decreasing]
16,CCn1c(C)c(C(C)=O)c(N2CCCCC2)nc1=S,inconclusive [decreasing]
17,Cc1ccc(P(=O)(OCCN2CCOCC2)C(C)(C)C)o1 (configuration not stated),inactive: > 76.9 µM
18,O=C(Nc1ccc2c(c1)OCO2)C1CCN(S(=O)(=O)Cc2ccccc2)CC1,inconclusive [decreasing]
19,O=C(CCCN1CCC(c2ccccc2)C1)c1ccc2c(c1)OCCO2 (configuration not stated),inconclusive [decreasing]
20,COCCn1c(-c2ccco2)nc2nc3ccccc3nc21,inactive: > 76.9 µM
21,Cc1ccc(S(=O)(=O)Cn2nnnc2C(C(C)C)N2CCSCC2)cc1 (configuration not stated),inconclusive [decreasing]
22,C=CCOc1ccccc1CNCc1cccnc1,inconclusive [decreasing]
23,Cc1ccc2cc(C#N)c(SCC(=O)NCC3CCCO3)nc2c1 (configuration not stated),inactive: > 76.9 µM
24,COCCNC(=O)c1c(N)sc2c1CCCC2,inactive: > 76.9 µM
25,COC(=O)c1sccc1NC(=O)c1c(C)noc1C,active: 12.1 µM
26,COc1ccc2cc3cc(C(=O)NCCN4CCN(c5ccccc5F)CC4)oc3nc2c1,inconclusive [decreasing]

row,Compound,Potency
1,COc1ccc(Nc2nc(C(=O)NCCCN3CCOCC3)cs2)cc1,inconclusive [decreasing]
2,COc1cccc(C(=O)CSc2nnc(-c3cc(OC)c(OC)c(OC)c3)o2)c1,inconclusive [increasing]
3,Cc1cc(O)cc(O)c1-c1onc(C(F)(F)F)c1-c1cscn1,inconclusive [decreasing]
4,O=C(Cc1coc2ccc3ccccc3c12)N1CCN(c2ncccn2)CC1,inactive: > 76.9 µM
5,CCOc1ccccc1OCC(=O)Nc1nnc(COC)s1,inactive: > 76.9 µM
6,O=S(=O)(c1ccc2c(c1)OCCO2)N1CCC(c2nc3ccccc3[nH]2)CC1,inconclusive [decreasing]
7,COc1cc(-n2nc(C)c3c2OC(N)=C(C#N)C3c2ccccc2)c(Cl)c(Br)c1O (configuration not stated),inconclusive [decreasing]
8,Clc1cccc(CSc2nnc([C@@H]3CCCN3)o2)c1,inconclusive [decreasing]
9,COC(=O)Cc1c(C)nc2nc(-c3ccccc3)[nH]n2c1=O,inconclusive [decreasing]
10,O=C1NC(=O)c2cc(NC(=O)C3CCCCC3)ccc21,inconclusive [decreasing]
11,Cc1nnc(SCc2nnc(-c3ccc(Cl)cc3)o2)n1-c1ccccc1,inactive: > 76.9 µM
12,CCOc1ccc2nc(NC(=O)C(CCSC)NS(=O)(=O)c3cccs3)sc2c1 (configuration not stated),inconclusive [decreasing]
13,CC(C)COP(=O)(c1ccc(N(C)C)cc1)C(O)c1ccccc1F (configuration not stated),inactive: > 76.9 µM
14,O=C(OCC(=O)N1CCN(c2ccccc2)CC1)c1ccc2ncsc2c1,inconclusive [decreasing]
15,CC(C)Oc1ccc(CNC2CCOC(C)(C)C2)cc1 (configuration not stated),inconclusive [decreasing]
16,Cc1ccc2[nH]c(=O)c(CN(CCO)Cc3nnnn3CCc3ccccc3)cc2c1,inconclusive [decreasing]
17,O=C(CCCNS(=O)(=O)c1cccs1)N1CCc2ccccc2C1,inactive: > 76.9 µM
18,COc1cc(OC)c(NC(=O)CCc2nc(-c3cccs3)no2)cc1Cl,inconclusive [increasing]
19,Cc1nonc1NC(=O)CSc1nc(C2CCCCC2)nc2ccccc12,inconclusive [decreasing]
20,CCCc1cc(=O)n2[nH]c(C)nc2n1,inactive: > 76.9 µM
21,O=C(c1cc2ccccc2oc1=O)N(Cc1ccco1)C1CCS(=O)(=O)C1 (configuration not stated),inactive: > 76.9 µM
22,Cc1oc2ccc(OCc3ccc(F)cc3)cc2c1C(=O)O,inconclusive [decreasing]
23,O=C(NCCc1ccccc1)c1ccccc1NS(=O)(=O)N1CCCC1,inconclusive [decreasing]
24,Cc1ccc(-c2csc3ncnc(OCC(=O)NC(=O)NCc4ccco4)c23)cc1,inconclusive [decreasing]
25,CC(C)C(=O)Nc1ccc(C(=O)NC2CCSC2=O)cc1 (configuration not stated),inconclusive [decreasing]
26,COc1ccc(-c2cc3nc4c(c(N5CCC6(CC5)OCCO6)n3n2)CCCC4)cc1,inconclusive [decreasing]

row,Compound,Potency
1,COc1ccc(NS(=O)(=O)c2ccc(Oc3ncccn3)cc2)cc1,inconclusive [decreasing]
2,CC(C)COC(=O)C(C#N)c1nc2ccccc2nc1N1CCN(Cc2ccc3c(c2)OCO3)CC1 (configuration not stated),inconclusive [decreasing]
3,O=C(NCCN=C1NS(=O)(=O)c2ccccc21)c1ccc(S(=O)(=O)N2CCOCC2)cc1,inconclusive [decreasing]
4,Cc1cccc(N2CCN(C(=O)c3cc4n(n3)C(C(F)(F)F)CC(c3ccco3)N4)CC2)c1C (configuration not stated),inconclusive [decreasing]
5,CC(C)(O)c1cc(=O)sc2nc3ccccc3n12,inactive: > 76.9 µM
6,CCn1c(CSc2nnc3ccccn23)nc2cc(C(=O)O)ccc21,inconclusive [increasing]
7,COc1ccc(CNC(=O)Nc2ccc(OC)cc2)cc1,inactive: > 76.9 µM
8,O=C(NCCc1ccccc1)c1c(O)c2cccc3c2n(c1=O)CC3,inconclusive [increasing]
9,O=C(NCCCn1ccnc1)c1cc2c(s1)CCCCC2,inconclusive [decreasing]
10,CC(=O)Nc1cccc(NC(=O)c2c(-c3ccccc3)noc2C)c1,inconclusive [decreasing]
11,CCCCOc1ccc(C(=O)Nc2ccncc2)cc1,active: 6.2 µM
12,CCOc1ccccc1NC(=O)CCSc1nc2n[nH]c(C)c2c(=N)n1-c1ccccc1Cl,inconclusive [decreasing]
13,O=C(NCC12CC3CC(CC(C3)C1)C2)c1nn2c(c1Cl)NC(c1ccco1)CC2C(F)(F)F (configuration not stated),active: 14.2 µM
14,CCOc1ccc(C(=O)Nc2ccc(N3CCN(C)CC3)cc2)cc1Br,inconclusive [decreasing]
15,N#CC1=C(N)SC(N)=C(C#N)C1c1ccnc2ccccc12,inconclusive [decreasing]
16,CCc1ccccc1N1CCN(S(=O)(=O)c2ccc(F)c(C)c2)CC1,inactive: > 76.9 µM
17,COC(=O)c1c(C(=O)OC)n(CCCN)c2ccc(C)cc12,inconclusive [decreasing]
18,O=C(Nc1ccc2nc(-c3cccs3)[nH]c2c1)c1ccco1,inconclusive [decreasing]
19,CCCn1c(=N)n(CC(O)COc2cccc(C)c2)c2ccccc21 (configuration not stated),active: 12.1 µM
20,CCn1c(COc2ccccc2C)nnc1SCC(=O)CC(=O)Nc1ccccc1,inconclusive [decreasing]
21,CCn1c(/C(C#N)=C(\O)CCc2ccccc2)nc2ccccc21,inconclusive [decreasing]
22,c1cncc(-c2nnc3n2N=C(c2cccs2)CS3)c1,inconclusive [decreasing]
23,Cc1cc(Cl)ccc1OCc1nc(-c2ccc(O)cc2)n[nH]1,inconclusive [decreasing]
24,CCc1ccccc1N1CSC2=C(C#N)C(c3cc(OC)c(OC)cc3OC)CC(=O)N2C1 (configuration not stated),inconclusive [decreasing]
25,Cc1nnsc1NC(=O)OCC(C)C,inactive: > 76.9 µM
